Data published in the RNAGym collection of RNA variant scans (doi:10.7554/elife.90254).
Read counts are not given, so values of variants with three or more changes are uncertain.

B1: OR4K15 (parent)
chain: GUUAACGGUCAUAGGCCAUGGAAACUAGGAGCACCAUUUCGCUGCCAGUGAAGAAAUGAACAAAGAAAAUCUGGGCCAGGCAGGCAUCAAAAGAAAUAGUCUUGCGCUCAACCAGAAAGUCUGUAAUCAUUUUAAGGGUA

Variants of: B1
Assay: self-cleavage, relative activity (ratio to wild type); higher = more cleavage; in vitro, sequencing; the parent is a self-cleaving ribozyme

Variant | self-cleavage
GUUAACGGUCAUAGGCCAUGGAAACUAGGAGCACCUUUUCGCUGCCAGUGAAGAAAUGAACAAAGAAAAUCUGGGCCAGGCAGGCGUCAAAAGAAAUAGUCUUGCGCUCAACCAGAAAGUCUGUAAUCAUUCUAAGGGUA [A36U A86G U132C] | 0.8
GUUAACGGUCAUAGGCCAUGGAAACUAGGAGCACCUUUUCGCUGCCAGUGAAGAAAUGAACAAAGAAAAUCUGGGCCAGGCAGGCAUCAGAAGAAAUAGUCCUGCGCUCAACCAGAAAGUCUGUAAUCAUUUUAGGGGUA [A36U A90G U102C A135G] | 2.19
GUUAACGGUCAUAGGCCAUGGAAACUAGGAGCACCUUUUCGCUGCCAGUGAAGAAAUGAACAAAGAAAAUCUGGGCCAGGCAGGCAUCAAAAGAGAUAGUCUUGCGCUCAACCAGAAAGUCUAUAAUCAUUUUAAGGGUA [A36U A95G G123A] | 1.65
GUUAACGGUCAUAGGCCAUGGAAACUAGGAGCACCUUUUCGCUGCCAGUGAAGAAAUGAACAAAGAAAAUCUGGGCCAGGCAGGCAUCAAAAGAGAUAGUCUUGCGCUCAACCAGAAAGUCUGUAACCAUUUUAAGGGUA [A36U A95G U127C] | 1.89
GUUAACGGUCAUAGGCCAUGGAAACUAGGAGCACCUUUUCGCUGCCAGUGAAGAAAUGAACAAAGAAAAUCUGGGCCAGGCAGGCAUCAAAAGAAAUGGUCUUGCGCUCAACCAGAAAGUCUGUAAUCAUUUUAAGCGUA [A36U A98G G137C] | 1.15
GUUAACGGUCAUAGGCCAUGGAAACUAGGAGCACCUUUUCGCUGCCAGUGAAGAAAUGAACAAAGAAAAUCUGGGCCAGGCAGGCAUCAAAAGAAAUAGUCUUGUGCUCAACCAGAAAGUCUGUAAUCAUUCUAAGGGUA [A36U C105U U132C] | 0.07
GUUAACGGUCAUAGGCCAUGGAAACUAGGAGCACCUUUUCGCUACCAGUGGAGAAAUGAACAAAGAAAAUCUGGGCCAGGCAGGCAUCAAAAGAAAUAGUCUUGCGCUCAGCCAGAAAGUCUGUAAUCAUUUUAAGGGUA [A36U G44A A51G A111G] | 0.03
GUUAACGGUCAUAGGCCAUGGAAACUAGGAGCACCUUUUCGCUGCCAGUGAAGAAAUGAACAAAGAAAAUCUGUGCCAGGCAGGCAUCAAAAGAAAUAGUCUUGCGCACAACCAGAAAGUCUGUAAUCAUUUUAAGGGUA [A36U G74U U108A] | 0.02
GUUAACGGUCAUAGGCCAUGGAAACUAGGAGCACCUUUUCGCUGCCAGUGAAGAAAUGAACAAAGAAAAUCUGGGCCAGGCAUGCAUCAAAAGAAAUAGUCUUGCGCUCAACCAGAAAGUCUGCAAUCAUUUUAAGGGUA [A36U G83U U124C] | 0.51
GUUAACGGUCAUAGGCCAUGGAAACUAGGAGCACCUCUUCGCUGCCAUUGAAGAAAUGAACGAAGAAAAUCUGGGCCCGGCAGGCAUCAAAAGAAAUAGUCUUGCGCUCAACCAGAAAGUCUGUAAUCAUUUUAAGGGUA [A36U U37C G48U A62G A78C] | 0.42
GUUAACGGUCAUAGGCCAUGGAAACUAGGAGCACCUCUUCGCUGCCAGUAAAGAAAUGAACAAAGAAAAUCUGGGCCAGGCAGGCAUCAAAAGAAAUAGUCUUGCGCUCAACCAGAAAGUCUGUAAUCAUUUUAAGGGUA [A36U U37C G50A] | 1.79
GUUAACGGUCAUAGGCCAUGGAAACUAGGAGCACCUUCUCGCUGCCAGUGAAGAAAUGUACAAAGAAAAUCUGGGCCAGGCAGGCAUCAAAAGAAAUAGUCUUGCGCUCGACCAGAAAGUCUGUAAUCAUUUUAAGGGUA [A36U U38C A59U A110G] | 0.27
GUUAACGGUCAUAGGCCAUGGAAACUAGGAGCACCUUCUCGCUGCCAGUGAAGAAAUGAACAAAGAGAAUCUGGGCCAGGCAGGCAUCCAAGGAAAUAGUCUUGCGCUCAACUAGAAAGGCUGUAAUCAUUUUAAGGGUA [A36U U38C A67G A89C A92G C113U U120G] | 0.04
GUUAACGGUCAUAGGCCAUGGAAACUAGGAGCACCUUUGCGCUGCCAGUGAAGAAAUGAACAAAGAAAACCUGGGCCAGGCAGGCAUCAAAAGAAAUAGUCUUGCGCUCAACCAGAAAGUCUGUAAUCAUUUUAAGGGUA [A36U U39G U70C] | 1.17
GUUAACGGUCAUAGGCCAUGGAAACUAGGAGCACCUUUUCGCAGCCAGUGAAGAAAUGGGCAAAGAAAAUCUGGGCCAGGCAGGCAUCAAAAGAAAUAGUCUUGCGCUCAACCAGAAAGUCUGUAAUCAUUUUAAGGGUA [A36U U43A A59G A60G] | 1.37
GUUAACGGUCAUAGGCCAUGGAAACUAGGAGCACCUUUUCGCCGCCAGUGAAGGAAUGAACAAAGAAAAUCUGGGCCAGGCAGGCAUCAAAAGAAAUAGUCUUGCGCUCAACCAGAAAGUCUGUAAUCAUUUUAAGGGUA [A36U U43C A54G] | 1.65
GUUAACGGUCAUAGGCCAUGGAAACUAGGAGCACCUUUUCGCCGCCAGUGAAGAAAUGAACAAAGAAAAUCUGGGCCAGGCAGGCCUCAAAAGAAAUAGUCUUGCGCUCAACCAGAAAGUCUGUAAUCAUUCUAAGGGUA [A36U U43C A86C U132C] | 1.5
GUUAACGGUCAUAGGCCAUGGAAACUAGGAGCACCUUUUCGCUGCCAGUGAAGAAACGAACAAAGAAAAUCUGGGCCAGGCAGGCAUCGAAAGAAGUAGUCUUGCGCUCAACCAGAAAGUCUGUAAUCAUUUUAAGGGUA [A36U U57C A89G A96G] | 0.36
GUUAACGGUCAUAGGCCAUGGAAACUAGGAGCACCUUUUCGCUGCCAGUGAAGAAAUGAACAAAGAAAACCUGGGCCAGGCAGGCAUCAAAAGAGAUAGUCUUGCGCUCAACCAGAAAGUCUGUAAUCAUUUUAAGGGUA [A36U U70C A95G] | 0.86
GUUAACGGUCAUAGGCCAUGGAAACUAGGAGCACCUUUUCGCUGCCAGUGAAGAAAUGAACAAAGAAAAUCUGGGCCAGGCAGGCAUCAAAAGAAAUAGUCUUGCGCCCUACCAGAAUGUCUGUAAUCAUUUUAAGGGUA [A36U U108C A110U A118U] | 0
GUUAACGGUCAUAGGCCAUGGAAACUAGGAGCACCAAUUCGCUGCCAGUGAGGAAGUGAACAAAGAAAAUCUGGGCCAGGCAGGCAUCAAAAGAAAUAGUCUUGCGCUCAACCAGAAACUCUGUAAUCAUUUUAAGGGUA [U37A A52G A56G G119C] | 1.68

Variant | self-cleavage
GUUAACGGUCAUAGGCCAUGGAAACUAGGAGCACCAAUUCGCUGCCAGUGAUGAGACGAACAAAGAAAAUCUGGGCCAGGCAGGCAUCAAAAGAAAUAGUCUUGCGCUCAACCAGAAAGUCUGUAAUCAUUCUAAGGGUA [U37A A52U A55G U57C U132C] | 0.75
GUUAACGGUCAUAGGCCAUGGAAACUAGGAGCACCAAUUCGCUGCCAGUGAAGAUAUGAACAAAGAAAAUCUGGGCCAGGCAGGCAUCAAAAGAAAUAGUCUAGCGCUCAACCAGAAAGUCUGUAAUCACUUUAAGGGUA [U37A A55U U103A U130C] | 0.39
GUUAACGGUCAUAGGCCAUGGAAACUAGGAGCACCAAUUCGCUGCCAGUGAAGAAAUGAGCAAAGAAAAUCUGGGCCAGGCAGGCAUCAAGAGAAAUAGUCUUGCGCUCAACCAGAAAGUCUGGAAUCAUCUUAAGGGUA [U37A A60G A91G U124G U131C] | 0.41
GUUAACGGUCAUAGGCCAUGGAAACUAGGAGCACCAAAUCGCUGCCAGUGAAGAAAUGAACAAAGAAAAUCAGGGCCAGGCAGGCAUCAAAAGAAAUAGUCUUGCGCUCAACCAGAAAGUCUGUAAUCAUUUUAAGGGUA [U37A U38A U72A] | 0.17
GUUAACGGUCAUAGGCCAUGGAAACUAGGAGCACCAAUCCGCUGCCAGUGAAGAAAUGUACAAAGAAAAUCUGGGCCAGGCAGGCAUCAGAAGAAAUAGUCUCGCGCUCAACCAGAAAGUCUGUAAUCAUUUUAAGGGUA [U37A U39C A59U A90G U103C] | 0.25
GUUAACGGUCAUAGGCCAUGGAAACUAGGAGCACCAAUCCACUGCCAGUGGAGAAACGAACAAAGGAAAUCUGGGCCAGGCAGGCAUCAAAAGAAAUAGUCCUGCGCUCAACCAGAAAGUCUGUAAUCAUUUUAAGGGUA [U37A U39C G41A A51G U57C A66G U102C] | 1.92
GUUAACGGUCAUAGGCCAUGGAAACUAGGAGCACCACUUCGCUGCCGGUGAAGAAAUGAACAAAGAAAAUCUGGGCCAGGCAGGCAUCAAAAGAAAUAGCCUUGCGCUCAACCAGAAAGUCUGUAAUCAUUUUAAGGGUA [U37C A47G U100C] | 2.13
GUUAACGGUCAUAGGCCAUGGAAACUAGGAGCACCACUUCGCUGCCUGUGAAGAAAUGAACGAAGAAAAUCUGGGCCAGGCAGGCAUCAAAAGAUAUAGUCUUGCGCUCAACCAGAAAGUCUGAAAUCAUUUUAAGGGUA [U37C A47U A62G A95U U124A] | 0.28
GUUAACGGUCAUAGGCCAUGGAAACUAGGAGCACCACUUCGCUGCCUGUGAAGAAAUGAACAAAGAAAAUCUGGGCCAGGCAGGCAUCAAAAGAGAUAGUCUUGCGCUCAACCAGAAAGUCUGUAAUCAUUUUAAGGGUA [U37C A47U A95G] | 1.42
GUUAACGGUCAUAGGCCAUGGAAACUAGGAGCACCACUUCGCUGCCAGUGGAGAAAUGGACAAAGAAAAUCUGGGCCAGGCAGGCAUCAAAAGAAAUAGUCUUGCGCUCAACCAGAAGGUCUGUAAUCAUUUUAAGGGUA [U37C A51G A59G A118G] | 0.21
GUUAACGGUCAUAGGCCAUGGAAACUAGGAGCACCACUUCGCUGCCAGUGGAGAAAUGAACAAAGAAAAUCUGGGCCAGGCAGGCUUCAAAAGAAAUAGUCUUGCGCUCAACCAGAAAGUCUGUAAUCAUUUUAAGGGUA [U37C A51G A86U] | 1.43
GUUAACGGUCAUAGGCCAUGGAAACUAGGAGCACCACUUCGCUGCCAGUGGAGAAAUGAACAAAGAAAAUCUGGGCCAGGCAGGCAUCAAAAGAAGUAGUCUUGCGCUCAACCAGAUAGUCUGUAAUCAUUUUAAGGGUA [U37C A51G A96G A117U] | 1.5
GUUAACGGUCAUAGGCCAUGGAAACUAGGAGCACCACUUCGCUGCCAGUGACGAAAUGAACAAAGAAAAUCUGGGCCAGGCAGGCAUCAAAAGGAAUAGUCUUGCGCUCAACCAGAAAGUCUGUAAUCAUUUUAAAGGUA [U37C A52C A94G G136A] | 1.81
GUUAACGGUCAUAGGCCAUGGAAACUAGGAGCACCACUUCGCUGCCAGUGAGGAAAUAAACAAGGAAAAUCUGGGCCAGGCAGGCAUCAAGAGAAAUAGUCUUGCGCUCAACCAGAAAGUCUGUAAUCAUUUUAAGGGUA [U37C A52G G58A A64G A91G] | 0.46
GUUAACGGUCAUAGGCCAUGGAAACUAGGAGCACCACUUCGCUGCCAGUGAUGAAAUGAGCAAAGAAAAUCUGGGCCAGGCAGGCAUCAAAAGAAAUAGUCUUGCGCUCAACCAGAAAGUCAGUAAUCAUUUUAAGGGUA [U37C A52U A60G U122A] | 0.34
GUUAACGGUCAUAGGCCAUGGAAACUAGGAGCACCACUUCGCUGCCAGUGAUGAAAUGAACAAGGAAAAUCUGGGCCAGGCAGGCAUCAAGAGAAAUAGUCUUGCGCUCAACCAGAAAGUCUGUAGUCAUUUUAAGGGUA [U37C A52U A64G A91G A126G] | 0.75
GUUAACGGUCAUAGGCCAUGGAAACUAGGAGCACCACUUCGCUGCCAGUGAAGCAAUGAGCAAAGAAAAUCUGGGCCAGGCAGGCAUCAAAAGAAAUAGUCUUGCGCUCAACCAGAAAGUCUGUAAUCAUUUUAAGGGUA [U37C A54C A60G] | 1.82
GUUAACGGUCAUAGGCCAUGGAAACUAGGAGCACCACUUCGCUGCCAGUGAAGGAAUGAGCUAAGAAGAUCUGGGCCAGGCAGGCAUCAAAAGAAAUAGUCUUGCGCUCAACCAGAAAGUCCGUAAUCAUUAUAAGGGUA [U37C A54G A60G A62U A68G U122C U132A] | 0.29
GUUAACGGUCAUAGGCCAUGGAAACUAGGAGCACCACUUCGCUGCCAGUGAAGGAAUGAACAAAGAUAAUCUGGGCCAGGCAGGCAUCAAAAGAAAUAGUCUUGCGCUCAACCAGAAAGUCUGUGAUCAUUUUAAGGGUA [U37C A54G A67U A125G] | 0.79
GUUAACGGUCAUAGGCCAUGGAAACUAGGAGCACCACUUCGCUGCCAGUGAAGGAAUGAACAAAGAAAAUCUGGGCCAGGCAGGCAUCAAAAGAAAUAGUCUUGCGCUCAACAAGAAAGUCUGUAAUCGUCUUAAGGGUA [U37C A54G C113A A129G U131C] | 0
